# Where “and” joins values, the source holds several entries; their conditions need not be identical. Equal entries are not always repeated. The inconclusive results got no clear call from the source; some entries with a clear call stand among them for comparison. Potencies of inconclusive entries are doubtful fits and often do not repeat. Calls of active or inactive are those of the source. Unless noted, calls follow the shape of the full dose curve.
# Tests used:
# [1] = qHTS assay for small molecule agonists of the p53 signaling pathway (AID 651631); conditions: HCT-116 p53RE-bla reporter, beta-lactamase FRET ratio, 16 h; activation: at 73.3 µM (top of the series) unless noted; also: nearly all actives have a fitted effect of over 15% in size; as to activation: % is scaled to controls: 0 for no effect and ±100 for the full control effect
# Procedure, shortened: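 Testing took place in human colorectal HCT-116 cells with stable p53RE-driven beta-lactamase. After 16 h of compound exposure at 37 °C, a FRET substrate was added and fluorescence recorded 2 h later.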
# [2] = qHTS assay for small molecule disruptors of the mitochondrial membrane potential (AID 720635; active = well fitted curve in the direction sought with a large enough effect in the repeat runs; inconclusive = weak or mixed curves; inactive = no such curve, though single readings can be large; an effect the other way counts as inactive or inconclusive; as to ratio activity, negative = MMP loss: % is scaled to controls: 0 for no effect and ±100 for the full control effect); conditions: HepG2 mitochondrial membrane potential, Mito-MPS dye ratio; ratio activity, negative = MMP loss: at 83.2 µM (top of the series) unless noted
# Procedure, shortened: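 Mitochondrial membrane potential tracked with Mito-MPS dye, red aggregates (ex 540/em 590 nm) against green monomers (ex 490/em 535 nm). Compound treatment 1 hr at 37C, dye 30 min in HepG2.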
# [3] = qHTS assay for small molecule disruptors of the mitochondrial membrane potential - cell viability (AID 720634); also: nearly all actives have a fitted effect of over 20% in size;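 as to activity change, negative = cytotoxicity: human HepG2 liver cancer cells; % is scaled to controls: 0 for no effect and ±100 for the full control effect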
# Procedure, shortened: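 Human hepatoma HepG2 cells were treated for 1 hr with test chemicals, then given m-MPI dye and CellTiter-Glo. Cell viability reflects luminescence proportional to cellular ATP.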
# [4] = qHTS assay for identifying genotoxic compounds that show differential cytotoxicity against isogenic chicken DT40 cell lines with known DNA damage response pathways - wild type cell line (AID 743012; active = well fitted curve in the direction sought with a large enough effect in the repeat runs; inconclusive = weak or mixed curves; inactive = no such curve, though single readings can be large; an effect the other way counts as inactive or inconclusive; also: nearly all actives have a fitted effect of over 60% in size); conditions: DT40 wild type chicken cells viability, CellTiter-Glo, 40 h; activity change, negative = cytotoxicity: at 68.4 µM (top of the series) unless noted
# Procedure, shortened: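 Quantitative HTS on parental DT40 cells: 40 h compound treatment at 37 C/5% CO2, with viability then determined by CellTiter-Glo luminescence. Values serve as the DNA repair-proficient reference for differential cytotoxicity.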
# [5] = qHTS assay for identifying genotoxic compounds that show differential cytotoxicity against isogenic chicken DT40 cell lines with known DNA damage response pathways - Rad54/Ku70 mutant cell line (AID 743015; active = well fitted curve in the direction sought with a large enough effect in the repeat runs; inconclusive = weak or mixed curves; inactive = no such curve, though single readings can be large; an effect the other way counts as inactive or inconclusive; also: nearly all actives have a fitted effect of over 60% in size); conditions: DT40 Rad54/Ku70 mutant viability, CellTiter-Glo, 40 h; activity change, negative = cytotoxicity: at 66.8 µM (top of the series) unless noted
# [6] = biological target: Glucocorticoid receptor (Homo sapiens) (UniProt P04150); test: qHTS assay to identify small molecule antagonists of the glucocorticoid receptor (GR) signaling pathway (AID 720692; active = well fitted inhibition curve with a large enough effect in the signal ratio in the repeat runs, not every such curve was filed as active; inconclusive = weak or mixed curves, or effect the other way; inactive = no such curve, though single readings can be large or run the other way; the % refers to the signal ratio; as to activity change, negative = inhibition: % is scaled to controls: 0 for no effect and ±100 for the full control effect); conditions: GR-bla HeLa, beta-lactamase FRET ratio, dexamethasone-stimulated, 18 h; activity change, negative = inhibition: at 58.5 µM (top of the series) unless noted
# Sequence of UniProt P04150 (P04150 whole entry, looked up): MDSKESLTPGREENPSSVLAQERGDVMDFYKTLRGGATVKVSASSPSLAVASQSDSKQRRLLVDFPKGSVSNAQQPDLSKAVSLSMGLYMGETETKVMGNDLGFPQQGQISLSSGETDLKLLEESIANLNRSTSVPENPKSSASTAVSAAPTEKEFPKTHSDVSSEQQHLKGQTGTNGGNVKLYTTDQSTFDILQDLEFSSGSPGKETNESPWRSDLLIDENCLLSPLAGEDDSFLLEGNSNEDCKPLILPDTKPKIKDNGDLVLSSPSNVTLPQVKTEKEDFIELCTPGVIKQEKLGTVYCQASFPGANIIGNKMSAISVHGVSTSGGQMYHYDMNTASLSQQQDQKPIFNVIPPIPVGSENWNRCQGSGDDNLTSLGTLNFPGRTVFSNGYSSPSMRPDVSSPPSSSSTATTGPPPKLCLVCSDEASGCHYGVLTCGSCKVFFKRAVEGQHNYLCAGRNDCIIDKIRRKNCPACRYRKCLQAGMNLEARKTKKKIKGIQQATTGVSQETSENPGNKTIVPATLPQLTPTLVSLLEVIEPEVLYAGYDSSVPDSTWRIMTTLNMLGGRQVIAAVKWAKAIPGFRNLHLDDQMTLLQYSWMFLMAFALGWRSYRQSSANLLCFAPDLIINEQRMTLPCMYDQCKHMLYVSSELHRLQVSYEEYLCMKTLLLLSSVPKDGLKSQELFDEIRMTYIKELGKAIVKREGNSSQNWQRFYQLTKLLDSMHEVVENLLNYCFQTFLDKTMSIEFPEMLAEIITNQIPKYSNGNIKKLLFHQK
# Procedure, shortened: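 Fluorescence from cleaved LiveBLAzer B/G FRET substrate reports GRE-driven beta-lactamase in HeLa cells; compounds are tested against 5 nM dexamethasone (final) over 18 h at 37 C, substrate incubation 2 h at room temperature.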
# [7] = qHTS assay to identify small molecule antagonists of the glucocorticoid receptor (GR) signaling pathway - cell viability counter screen (AID 720693; active = well fitted curve in the direction sought with a large enough effect in the repeat runs; inconclusive = weak or mixed curves; inactive = no such curve, though single readings can be large; an effect the other way counts as inactive or inconclusive; also: nearly all actives have a fitted effect of over 55% in size); conditions: GR-bla HeLa viability, CellTiter-Glo luminescence, 18 h, with 5 nM dexamethasone present; viability change, negative = cytotoxic: at 58.5 µM (top of the series) unless noted
# [8] = qHTS assay for identifying genotoxic compounds that show differential cytotoxicity against isogenic chicken DT40 cell lines with known DNA damage response pathways - Rev3 mutant cell line (AID 743014; active = well fitted curve in the direction sought with a large enough effect in the repeat runs; inconclusive = weak or mixed curves; inactive = no such curve, though single readings can be large; an effect the other way counts as inactive or inconclusive; also: nearly all actives have a fitted effect of over 55% in size); conditions: chicken DT40 Rev3-/- viability, CellTiter-Glo, 40 h; activity, negative = cytotoxicity: at 68.4 µM (top of the series) unless noted
# [9] = biological target: Glucocorticoid receptor (Homo sapiens) (UniProt P04150); test: qHTS assay to identify small molecule agonists of the glucocorticoid receptor (GR) signaling pathway (AID 720691; active = well fitted activation curve with a large enough effect in the signal ratio in the repeat runs, not every such curve was filed as active; inconclusive = weak or mixed curves, or effect the other way; inactive = no such curve, though single readings can be large or run the other way; the % refers to the signal ratio); conditions: GR-bla HeLa, beta-lactamase reporter ratio, 18 h; activation: at 62.4 µM (top of the series) unless noted
# Procedure, shortened: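 Beta-lactamase reporter activity, read as fluorescence intensity, was measured in GR-bla HeLa cells exposed to compounds for 18 h at 37 C and then loaded with LiveBLAzer B/G FRET substrate for 2 h at room temperature.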
# Potency is read from the fitted curve at half-maximal effect; tags tell the direction and shape of the fitted curve or compound fluorescence and quenching.
compound,measurement,setting,value
Cc1ccc(Cl)c(O)c1,activation,[1],inconclusive: 3.83%
same,Potency,[2],"inconclusive: 1.19 µM [inhibitor, partial curve, poor fit]"
COP(=S)(OC)Oc1cc(Cl)c(Br)cc1Cl,Potency,[1],"inconclusive: 68.6 µM [activator, single point]"
same,Potency,[3],active: 54.5 µM
same,Potency,[4],"inconclusive: 68.6 µM [cytotoxic, single point]"
same,Potency,[5],"inconclusive: 61.1 µM [cytotoxic, single point]"
O=C(Cl)CCl,Potency,[1],inactive
same,Potency,[2],inactive
N[C@@H]1C[C@H]1c1ccccc1,Potency,[1],inactive
same,Potency,[2],inconclusive: 23.7 µM [activator]
CO/C=C(/C(=O)OC)c1ccccc1Oc1cc(Oc2ccccc2C#N)ncn1,Potency,[1],"inconclusive: 1.64 µM [activator, full curve, poor fit]"
same,Potency,[3],"inconclusive: 46.2 µM [cytotoxic, partial curve, poor fit]"
same,Potency,[6],"inconclusive: 7.38 µM [activator, full curve]"
same,Potency,[7],"inconclusive: 20.8 µM [cytotoxic, partial curve]"
same,Potency,[5],active: 0.312 µM
CCOc1cc(OP(=S)(OC)OC)nc(CC)n1,Potency,[1],inactive
same,"ratio activity, negative = MMP loss",[2],inconclusive: 15%
Nc1ccc(Cc2ccc(N)c(Cl)c2)cc1Cl,Potency,[1],"inconclusive: 52.7 µM [cytotoxic, partial curve]"
same,Potency,[3],"inconclusive: 59.1 µM [cytotoxic, partial curve, poor fit]"
same,Potency,[2],active: 59.1 µM
same,Potency,[8],"inconclusive: 74.4 µM [cytotoxic, single point]"
same,Potency,[5],"inconclusive: 66.3 µM [cytotoxic, single point]"
COP(=O)(OC)O/C(=C/Cl)c1cc(Cl)c(Cl)cc1Cl,Potency,[1],"inconclusive: 64.6 µM [falling, partial curve]"
same,Potency,[3],inactive
same,Potency,[2],"inconclusive: 0.912 µM [rising, full curve]"
same,Potency,[4],active: 64.6 µM
CC(=O)c1cc2c(cc1C)C(C)(C)C(C)CC2(C)C (stereo not drawn),Potency,[1],inconclusive: 61.1 µM
same,Potency,[3],"inconclusive: 54.5 µM [cytotoxic, single point]"
same,Potency,[2],active: 54.5 µM
same,Potency,[4],"inconclusive: 21.7 µM [cytotoxic, partial curve, poor fit]"
same,Potency,[8],"inconclusive: 24.3 µM [cytotoxic, partial curve]"
same,Potency,[5],"inconclusive: 27.3 µM [cytotoxic, single point]"
CCC[N+](=O)[O-],Potency,[1],inactive
same,Potency,[2],inactive
O=[N+]([O-])c1ccc(Oc2ccc(C(F)(F)F)cc2[N+](=O)[O-])cc1,Potency,[1],"inconclusive: 0.545 µM [activator, single point]"
same,Potency,[3],active: 19.3 µM
same,Potency,[2],active: 12.2 µM
same,Potency,[8],active: 17.2 µM
N#Cc1cc(Br)c(O)c(Br)c1,Potency,[1],"inconclusive: 68.5 µM [activator, single point] and inconclusive: 58.9 µM [activator]"
same,Potency,[3],"inconclusive: 21.7 µM [cytotoxic, partial curve, poor fit] and active: 11.7 µM"
same,Potency,[6],"inconclusive: 43.6 µM [falling, partial curve, poor fit]"
same,"activity change, negative = inhibition",[6],inconclusive: 34%
same,Potency,[8],"inconclusive: 68.5 µM [cytotoxic, single point] and inconclusive: 52.5 µM [cytotoxic, single point]"
same,Potency,[5],"inconclusive: 68.5 µM [cytotoxic, single point] and inconclusive: 58.9 µM [cytotoxic, single point]"
Cc1ccccc1O,Potency,[1],inactive
same,Potency,[2],inconclusive: 6.83 µM [single point] and inactive
CN(C)CCc1c[nH]c2cccc(OP(=O)(O)O)c12,activation,[1],inconclusive: -3.3%
same,Potency,[2],inactive
O=C(N[C@H](c1ccccc1)[C@@H]1CN2CCC1CC2)c1c(Cl)ccc(C(F)(F)F)c1Cl,Potency,[1],"inconclusive: 78.1 µM [falling, partial curve]"
same,Potency,[3],"inconclusive: 55.3 µM [cytotoxic, partial curve]"
same,Potency,[2],active: 43.9 µM
same,Potency,[7],inactive
COC(=O)N(OC)c1ccccc1COc1ccn(-c2ccc(Cl)cc2)n1,Potency,[1],active: 1.72 µM
same,Potency,[3],active: 1.93 µM
same,Potency,[6],"inconclusive: 0.977 µM [activator, full curve]"
same,Potency,[5],active: 0.217 µM
CCOc1nc(F)cc2nc(S(=O)(=O)Nc3c(Cl)cccc3Cl)nn12,Potency,[1],inactive
same,Potency,[2],inactive
CCN(CC)C(=O)SCc1ccc(Cl)cc1,Potency,[1],inactive
same,Potency,[3],"inactive and inconclusive: 54.5 µM [cytotoxic, partial curve, poor fit]"
same,Potency,[4],"inconclusive: 14.1 µM [rising, full curve]"
same,Potency,[8],"inconclusive: 44.6 µM [cytotoxic, partial curve]"
same,Potency,[5],"inconclusive: 79.2 µM [cytotoxic, partial curve, poor fit]"
Oc1cc(Cl)ccc1Cl,Potency,[1],inactive
same,Potency,[3],"inconclusive: 62.8 µM [cytotoxic, partial curve, poor fit]"
same,Potency,[5],inactive
Cc1ccccc1C(=O)Nc1cccc(OC(C)C)c1,Potency,[1],inactive
same,Potency,[3],"inconclusive: 43.3 µM [cytotoxic, partial curve, poor fit]"
same,Potency,[2],active: 30.6 µM
same,Potency,[6],inactive
same,Potency,[5],active: 48.6 µM
COc1ccc(Cc2nccc3cc(OC)c(OC)cc23)cc1OC,Potency,[1],"inconclusive: 7.17 µM [rising, partial curve, poor fit]"
same,Potency,[2],"inconclusive: 0.202 µM [inhibitor, full curve, poor fit]"
CCOc1cc(Oc2ccc(C(F)(F)F)cc2Cl)ccc1[N+](=O)[O-],Potency,[1],inactive
same,Potency,[3],"active: 19.5 µM and inconclusive: 34.4 µM [cytotoxic, partial curve]"
same,Potency,[7],"inconclusive: 61.6 µM [rising, partial curve, poor fit]"
same,Potency,[4],"inconclusive: 69.4 µM [rising, single point]"
same,Potency,[5],"inconclusive: 69.4 µM [cytotoxic, single point]"
CCOC(=O)CP(=O)(OCC)OCC,Potency,[1],inactive
same,Potency,[2],"inconclusive: 30.6 µM [fluorescent, partial curve, poor fit]"
CC(=O)OC(c1ccccc1)C(Cl)(Cl)Cl (stereo not drawn),activation,[1],inconclusive: 5.58%
same,Potency,[3],inactive
same,Potency,[6],"inconclusive: 54.9 µM [activator, partial curve, poor fit]"
same,Potency,[4],"inconclusive: 43.3 µM [cytotoxic, partial curve, poor fit]"
same,Potency,[5],"inconclusive: 68.6 µM [cytotoxic, single point]"
Fc1ccc(Oc2ccnc3cc(Cl)cc(Cl)c23)cc1,Potency,[1],inconclusive: 68.6 µM [activator]
same,Potency,[3],"inconclusive: 34.4 µM [cytotoxic, partial curve, poor fit]"
same,Potency,[6],inconclusive: 54.9 µM [inhibitor]
O=[N+]([O-])c1c2ccccc2cc2ccccc12,Potency,[1],inconclusive: 9.57 µM [activator]
same,Potency,[3],"inconclusive: 19.1 µM [cytotoxic, partial curve, poor fit]"
same,Potency,[2],active: 8.53 µM
same,Potency,[4],"inconclusive: 27 µM [cytotoxic, full curve]"
same,Potency,[8],"inconclusive: 13.2 µM [cytotoxic, full curve]"
same,Potency,[5],"inconclusive: 54 µM [cytotoxic, partial curve]"
C#CCC1=C(C)C(OC(=O)C2C(C=C(C)C)C2(C)C)CC1=O (stereo not drawn),Potency,[1],inconclusive: 68.1 µM [activator]
same,Potency,[3],"inconclusive: 60.7 µM [cytotoxic, partial curve, poor fit]"
same,Potency,[2],active: 60.7 µM
same,Potency,[8],active: 30.4 µM
C=C1C[C@@H]2[C@H](CC[C@]3(C)C(=O)CC[C@@H]23)[C@@]2(C)C=CC(=O)C=C12,activation,[1],inconclusive: 8.94%
same,Potency,[2],"inconclusive: 2.11 µM [activator, partial curve, poor fit]"
CCC(C)(NC(=O)c1cc(Cl)c(C)c(Cl)c1)C(=O)CCl (stereo not drawn),Potency,[1],active: 27.5 µM
same,Potency,[3],"inconclusive: 34.6 µM [cytotoxic, partial curve]"
same,Potency,[9],inconclusive: 34.9 µM [cytotoxic]
same,Potency,[6],"inconclusive: 49.3 µM [cytotoxic, partial curve]"
CC(=NC#N)N(C)Cc1ccc(Cl)nc1,Potency,[1],inactive
same,Potency,[2],"inconclusive: 0.217 µM [activator, single point]"
CC(C)(C)OOC(C)(C)C,Potency,[1],"inconclusive: 1.34 µM [activator, single point]"
same,Potency,[2],inactive
CCCN(CCC)c1c([N+](=O)[O-])cc(C(C)C)cc1[N+](=O)[O-],activation,[1],inconclusive: -4.95%
same,Potency,[3],"inconclusive: 59.8 µM [cytotoxic, partial curve, poor fit]"
same,Potency,[2],"inconclusive: 30 µM [inhibitor, partial curve]"
same,Potency,[8],"inconclusive: 48.6 µM [cytotoxic, partial curve, poor fit]"
O=C(O)C(F)(F)C(F)(F)C(F)(F)C(F)(F)C(F)(F)C(F)(F)C(F)(F)C(F)(F)C(F)(F)F,Potency,[1],inconclusive: 27.3 µM [activator]
same,Potency,[2],"inconclusive: 19.3 µM [fluorescent, partial curve, poor fit]"
CO/C=C(/C(=O)OC)c1ccccc1COc1cccc(C(F)(F)F)n1,Potency,[1],active: 8.63 µM
same,Potency,[3],"inconclusive: 54.4 µM [cytotoxic, partial curve]"
same,Potency,[2],active: 6.85 µM
same,Potency,[7],"inconclusive: 2.18 µM [rising, single point]"
same,Potency,[4],active: 0.0769 µM
CNC(=O)O/N=C(\SC)C(=O)N(C)C,activation,[1],inconclusive: 4.56% [at 95.1 µM]
same,Potency,[3],inactive
same,Potency,[4],inconclusive: 68.5 µM [cytotoxic]
same,Potency,[8],"inconclusive: 66.7 µM [cytotoxic, partial curve]"

# From PubChem BioAssay (Tox21)
